{"source": "PubChem BioAssay AID504845", "about": "(National Center for Advancing Translational Sciences (NCATS), 2011)", "note": "Screen size: about 390,000 compounds; about 150 (0.038%) were called active. The inconclusive results got no clear call from the source; some entries with a clear call stand among them for comparison. Calls come from the whole dose curve; as a rule, active = well fitted inhibition curve with a large enough effect; inconclusive = small, poorly fitted or top-dose-only effect; inactive = no such curve, though single readings can be large or run the other way. A potency beside an inconclusive call is a rough fit, not a confirmed value. Potency is the fitted concentration of half-maximal effect; tags give direction and shape of the fitted curve.", "data": [{"target": "Regulator of G-protein signaling 4 (Homo sapiens) (UniProt P49798)", "sequence (P49798 whole entry, looked up)": "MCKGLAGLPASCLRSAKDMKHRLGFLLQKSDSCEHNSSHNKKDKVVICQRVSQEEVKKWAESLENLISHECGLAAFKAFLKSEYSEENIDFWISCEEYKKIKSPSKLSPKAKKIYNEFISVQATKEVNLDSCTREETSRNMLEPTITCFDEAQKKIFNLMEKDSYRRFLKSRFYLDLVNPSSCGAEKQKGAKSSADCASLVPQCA", "assay": "Inhibitors of Regulator of G Protein Signaling (RGS) 4: qHTS; note: nearly all actives have a fitted effect of over 75% in size", "conditions": "Transcreener GDP fluorescence polarization, RGS4-accelerated GTP hydrolysis; series mostly up to 114 µM", "summary_of_the_method": "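MLSMR compounds (23 nl, pin-transferred) preincubated 10 min at room temperature with a 500nM (2x) first reagent, then RGS4 at 900nM (2x) plus Transcreener GDP mix added; fluorescence polarization (620/688 nm) read before and after 90 min at 30 °C.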", "values": [{"smiles": "CCC(=O)Nc1ccc(NC(=O)CSc2nnnn2C(C)C)cc1", "Potency": "inconclusive: 70.8 µM [inhibitor, single point]"}, {"smiles": "COC(=O)c1ccc(-c2ccc(C(c3c(C)[nH][nH]c3=O)c3c(C)[nH][nH]c3=O)o2)cc1", "Potency": "inconclusive: 89.1 µM [inhibitor, partial curve, poor fit]"}, {"smiles": "CNc1nnc(-c2cc3cc(Cl)ccc3oc2=O)s1", "Potency": "inconclusive: 89.1 µM [inhibitor, single point]"}, {"smiles": "CCN(CC)c1ccc(S(=O)(=O)N2CCOCC2)cc1NC(=O)CSC(=S)N1CCCC1", "Potency": "inconclusive: 50.1 µM [inhibitor, partial curve, poor fit]"}, {"smiles": "Nc1ccc2c(c1)C(=O)C(=O)c1ccccc1-2", "Potency": "inconclusive: 31.6 µM [inhibitor, partial curve, poor fit]"}, {"smiles": "NC(=O)c1ccc(NC(=O)c2cncn2-c2ccccc2)cc1", "Potency": "inconclusive: 17.8 µM [inhibitor, full curve, poor fit]"}, {"smiles": "O=C(Cc1ccccc1)N/N=C/c1ccc(OC(=O)/C=C\\c2ccco2)cc1", "Potency": "inactive"}, {"smiles": "CCOc1ccc(-n2nc3ccc(NC(=O)Cc4ccccc4)cc3n2)cc1", "Potency": "inconclusive: 79.4 µM [inhibitor, partial curve, poor fit]"}, {"smiles": "Cc1[nH][nH]c(=O)c1C(c1ccc(F)cc1)c1c(C)[nH][nH]c1=O", "Potency": "inconclusive: 79.4 µM [inhibitor, partial curve, poor fit]"}, {"smiles": "c1ccc(-c2nc(-c3ccco3)cs2)nc1", "Potency": "inconclusive: 79.4 µM [inhibitor, partial curve, poor fit]"}, {"smiles": "COc1cccc(N2CC(C(=O)Nc3nnc(SCC(=O)NCC4CCCO4)s3)CC2=O)c1", "note": "(configuration not stated)", "Potency": "inconclusive: 44.7 µM [inhibitor, partial curve, poor fit]"}, {"smiles": "CCOC(=O)c1c(NC(=O)C2c3ccccc3Oc3ccccc32)sc(C(=O)N(CC)CC)c1C", "Potency": "inconclusive: 50.1 µM [inhibitor, partial curve, poor fit]"}, {"smiles": "CCN(CC)S(=O)(=O)c1ccc(NC(=O)c2cccnc2Cl)c(NC(=O)c2cccnc2Cl)c1", "Potency": "inconclusive: 50.1 µM [inhibitor, partial curve, poor fit]"}, {"smiles": "CNS(=O)(=O)c1cccc2nsnc12", "Potency": "inconclusive: 89.1 µM [inhibitor, single point]"}, {"smiles": "O=[N+]([O-])c1ccccc1CN1CCN(Cc2ccccn2)CC1", "Potency": "inconclusive: 44.7 µM [inhibitor, partial curve, poor fit]"}, {"smiles": "CCCCCn1c(=O)c2ccccc2n2c(=S)[nH]nc12", "Potency": "inconclusive: 79.4 µM [inhibitor, partial curve, poor fit]"}, {"smiles": "O=S(=O)(Nc1cc(Sc2cccc3cccnc23)c(O)c2ccccc12)c1ccc(F)cc1", "Potency": "inconclusive: 56.2 µM [inhibitor, partial curve, poor fit]"}, {"smiles": "CCC1CCCCN1S(=O)(=O)c1cc2c3c(c1)CC(=O)N3CCC2", "note": "(configuration not stated)", "Potency": "inactive"}, {"smiles": "CCCCOc1ccc(Br)cc1/C(C)=N/NC1=NCCN1", "Potency": "inactive"}, {"smiles": "CC(C)(C)c1ccc(OCc2ccc(C(=O)N/N=C/c3ccc([N+](=O)[O-])cc3)o2)cc1", "Potency": "inconclusive: 44.7 µM [inhibitor, partial curve, poor fit]"}, {"smiles": "COc1ccnc(Oc2ccccc2)c1C(N)=O", "Potency": "inconclusive: 89.1 µM [inhibitor, single point]"}, {"smiles": "Cc1ccc(C(=O)Nc2ccccc2C(N)=O)o1", "Potency": "inactive"}, {"smiles": "O=c1cc(CN2CCN(c3ccccc3)CC2)c2cc(O)c(-c3ccccc3)cc2o1", "Potency": "inconclusive: 89.1 µM [inhibitor, single point]"}, {"smiles": "COc1cccc(CNC(=O)COc2cc3c(c4oc(=O)cc(C)c24)CCC(C)(C)O3)c1", "Potency": "inactive"}, {"smiles": "Cc1ccc(N2NC(=O)/C(=C/c3ccc(-c4ccc(Cl)c(C(=O)O)c4)o3)C2=O)cc1C", "Potency": "inactive"}, {"smiles": "CC12CCC(c3c1nc1ccccc1[n+]3[O-])C2(C)C", "note": "(configuration not stated)", "Potency": "inconclusive: 25.1 µM [inhibitor, full curve, poor fit]"}, {"smiles": "O=c1c2sc3ccccc3c2n(Cc2cccc(Cl)c2)c(=O)n1Cc1ccco1", "Potency": "inconclusive: 44.7 µM [inhibitor, partial curve, poor fit]"}, {"smiles": "O=S(=O)(NC1CC1)c1ccc2c3c(cccc13)CC2", "Potency": "inconclusive: 44.7 µM [inhibitor, partial curve, poor fit]"}, {"smiles": "Cc1cc(C)c2c(N)c(C(=O)c3ccccc3)oc2n1", "Potency": "inactive"}, {"smiles": "NS(=O)(=O)c1cc(C(=O)NC2CCSc3ccccc32)ccc1Cl", "note": "(configuration not stated)", "Potency": "inconclusive: 56.2 µM [inhibitor, partial curve, poor fit]"}, {"smiles": "Cc1ccc(-n2cnc3scc(-c4cccs4)c3c2=O)cc1", "Potency": "inactive"}, {"smiles": "CN(C(=O)c1ccccc1)C1(C)CCS(=O)(=O)C1", "note": "(configuration not stated)", "Potency": "inconclusive: 70.8 µM [inhibitor, single point]"}, {"smiles": "COc1cc(C2(c3ccc(O)c(OC)c3)C(=O)N(C)c3ccc(Br)cc32)ccc1O", "Potency": "inactive"}, {"smiles": "CN(C)c1ccc2cc(S(=O)(=O)O)cc(O)c2c1", "Potency": "inconclusive: 31.6 µM [inhibitor, full curve, poor fit]"}, {"smiles": "COc1ccccc1N1CCN(c2ccc(NC(=O)c3ccc(C)cc3)cc2C(=O)O)CC1", "Potency": "inactive"}, {"smiles": "CCc1ccc(/C=N/n2c(C3CCCCC3)n[nH]c2=S)cc1", "Potency": "inconclusive: 89.1 µM [inhibitor, single point]"}, {"smiles": "COCCCN(C(=O)c1ccco1)c1nc(-c2ccc(OC)cc2)cs1", "Potency": "inconclusive: 100 µM [inhibitor, partial curve, poor fit]"}, {"smiles": "CCOc1ccc(OCC)c(NC(=O)c2cc(S(=O)(=O)N3CCCC3)cn2C)c1", "Potency": "inactive"}, {"smiles": "CN(C)CCC(=O)N1C/C(=C/c2ccccc2)C(=O)/C(=C\\c2ccccc2)C1", "Potency": "inconclusive: 100 µM [inhibitor, partial curve, poor fit]"}, {"smiles": "Fc1ccc(-n2ncc3c(NC4CCCCCC4)ncnc32)cc1", "Potency": "inactive"}, {"smiles": "CCSc1n[nH]c(=S)s1", "Potency": "inactive"}, {"smiles": "COc1ccc(-n2c(=S)[nH]c3ccccc3c2=S)cc1", "Potency": "inactive"}, {"smiles": "COc1ccc(-c2nn(-c3ccccc3)cc2/C=C(\\C#N)C(N)=O)cc1[N+](=O)[O-]", "Potency": "inconclusive: 70.8 µM [inhibitor, single point]"}, {"smiles": "O=C(Nc1nc(-c2ccccn2)cs1)c1cccc(-n2cnnn2)c1", "Potency": "inconclusive: 79.4 µM [inhibitor, partial curve, poor fit]"}, {"smiles": "CS(=O)(=O)N(CC(=O)N1CCN(c2ccccc2)CC1)C1CCCCC1", "Potency": "inconclusive: 56.2 µM [inhibitor, partial curve, poor fit]"}, {"smiles": "O=C(NCc1ccc2c(c1)OCO2)C(=O)NC1CCCCC1", "Potency": "inconclusive: 100 µM [inhibitor, partial curve, poor fit]"}, {"smiles": "COc1ccccc1C(=O)Nc1ccc2oc(-c3ccc(F)cc3)nc2c1", "Potency": "inconclusive: 50.1 µM [inhibitor, partial curve, poor fit]"}, {"smiles": "COc1cccc(-c2cc(=O)[nH][nH]2)c1", "Potency": "inactive"}, {"smiles": "COc1cc(C)ccc1OCc1cc(C(=O)N(Cc2c(C)nn(C)c2C)C2CC2)no1", "Potency": "inactive"}, {"smiles": "O=[N+]([O-])c1cc([N+](=O)[O-])c2cc3ccccc3nc2c1", "Potency": "inconclusive: 17.8 µM [inhibitor, full curve, poor fit]"}, {"smiles": "CN(C)c1ccc(N/C=C/C(=O)C(C)(C)C)cc1", "Potency": "inconclusive: 44.7 µM [inhibitor, partial curve, poor fit]"}, {"smiles": "O=C(Nc1ccccc1-c1ccccc1)C1CCCN(c2ncccn2)C1", "note": "(configuration not stated)", "Potency": "inactive"}, {"smiles": "O=C(c1ccc2c(c1)[nH]c(=S)n1c3ccccc3nc21)N1CCN(c2cccc(Cl)c2)CC1", "Potency": "inconclusive: 100 µM [inhibitor, single point]"}, {"smiles": "CCn1cnc2c1c(=O)n(CC(=O)Nc1ccc3c(c1)OC(F)(F)O3)c(=O)n2Cc1ccccc1", "Potency": "inactive"}, {"smiles": "CC1=NS(=O)(=O)c2cc(Cl)ccc2N1", "Potency": "inconclusive: 1.5 µM [inhibitor, full curve, poor fit]"}, {"smiles": "CCCC(C)c1nnc(NC(=O)CCS(=O)(=O)Cc2ccccc2)s1", "note": "(configuration not stated)", "Potency": "inconclusive: 44.7 µM [inhibitor, partial curve, poor fit]"}, {"smiles": "CCOc1ccc(NC(=O)c2nn(C)c3c2COc2ccccc2-3)cc1", "Potency": "inactive"}, {"smiles": "COC(=O)c1cc(NC(=O)Cc2ccc(OC)c(OC)c2)cc(C(=O)OC)c1", "Potency": "inconclusive: 50.1 µM [inhibitor, partial curve, poor fit]"}, {"smiles": "Cc1ccc(S(=O)(=O)/N=C2\\C=C(NS(=O)(=O)c3ccccc3)C(=O)c3ccccc32)c(C)c1", "Potency": "inconclusive: 50.1 µM [inhibitor, partial curve, poor fit]"}, {"smiles": "CCCc1cc(=O)[nH]c(SCC(=O)c2c[nH]c3ccccc23)n1", "Potency": "inconclusive: 17.8 µM [inhibitor, full curve, poor fit]"}, {"smiles": "CN(C)S(=O)(=O)c1ccc(N)c([N+](=O)[O-])c1", "Potency": "inactive"}, {"smiles": "O=C(c1cc2ccccc2oc1=O)N(Cc1cccs1)C1CCS(=O)(=O)C1", "note": "(configuration not stated)", "Potency": "inconclusive: 79.4 µM [inhibitor, single point]"}, {"smiles": "COc1ccc2nc(-c3ccccc3)cc(OC)c2c1", "Potency": "inactive"}, {"smiles": "Cc1cccc(Nc2c([N+](=O)[O-])c(=O)n(C)c3ccccc23)c1", "Potency": "inconclusive: 79.4 µM [inhibitor, partial curve, poor fit]"}, {"smiles": "O=C(c1ccccc1F)n1c2c(c3ccccc31)CCCC2", "Potency": "inactive"}, {"smiles": "COc1ccc(C/C(N)=N/OC(=O)c2ccco2)cc1OC", "Potency": "inconclusive: 50.1 µM [inhibitor, partial curve, poor fit]"}, {"smiles": "CN(C)c1ccc(C(=S)NCc2ccco2)cc1", "Potency": "inconclusive: 79.4 µM [inhibitor, partial curve, poor fit]"}]}]}
